# Data: the supplement of paper PMC8728848
# The other results are listed elsewhere or left out.
# B1: CAA (Caragana arborescens) (protein)
# chain: VAVEFDTFDNPDWDPRTKHIGIDVNSIRSNKTTQWGFWNRQVADVDISYEASSKTLNVSLYYPGESYIVTDVVDLKDILPEWVRIGF
# Tests used:
# Test in all cases: glycan array binding signal (z-score within array); higher = stronger binding
# Details in all cases: glycan notation: IUPAC condensed, linker removed
# [1] = molecular target: Neu5Ac(a2-3)Gal(b1-3)GlcNAc6S
# How it was run: (§1)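 From the Consortium for Functional Glycomics database, 3228 arrays were curated, keeping only those whose protein sequence was available. Binding is given as a within-array Z-score averaged across arrays sharing a protein sequence and across linkers. Negative Z-scores can be read as non-binding.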
# [2] = molecular target: Neu5Ac(a2-3)Gal(b1-3)[Fuc(a1-4)]GlcNAc
# How it was run: as §1
# [3] = molecular target: Neu5Ac(a2-3)Gal(b1-3)[Fuc(a1-4)]GlcNAc(b1-3)Gal(b1-3)[Fuc(a1-4)]GlcNAc
# How it was run: as §1
# [4] = molecular target: Neu5Ac(a2-3)Gal(b1-3)[Fuc(a1-4)]GlcNAc(b1-3)Gal(b1-4)[Fuc(a1-3)]GlcNAc
# How it was run: as §1
# [5] = molecular target: Neu5Ac(a2-3)Gal(b1-3)[GlcNAc(b1-6)]GalNAc
# How it was run: as §1
# [6] = molecular target: Neu5Ac(a2-3)Gal(b1-3)[Neu5Ac(a2-6)]GalNAc
# How it was run: as §1
# [7] = molecular target: Neu5Ac(a2-3)Gal(b1-3)[Neu5Ac(a2-6)]GlcNAc(b1-3)[Fuc(a1-3)[Gal(b1-4)]GlcNAc(b1-6)]Gal(b1-4)Glc
# How it was run: as §1
# [8] = molecular target: Neu5Ac(a2-3)Gal(b1-3)]Neu5Ac(a2-3)Gal(b1-4)]GlcNAc
# How it was run: as §1
# [9] = molecular target: Neu5Ac(a2-3)Gal(b1-4)Glc
# How it was run: as §1
# [10] = molecular target: Neu5Ac(a2-3)Gal(b1-4)GlcNAc
# How it was run: as §1
# [11] = molecular target: Neu5Ac(a2-3)Gal(b1-4)GlcNAc(b1-2)Man
# How it was run: as §1
# [12] = molecular target: Neu5Ac(a2-3)Gal(b1-4)GlcNAc(b1-2)Man(a1-3)[GlcNAc(b1-4)][Neu5Ac(a2-3)Gal(b1-4)GlcNAc(b1-2)Man(a1-6)]Man(b1-4)GlcNAc(b1-4)GlcNAc
# How it was run: as §1
# [13] = molecular target: Neu5Ac(a2-3)Gal(b1-4)GlcNAc(b1-2)Man(a1-3)[Neu5Ac(a2-3)Gal(b1-4)GlcNAc(b1-2)Man(a1-6)]Man(b1-4)GlcNAc(b1-4)GlcNAc
# How it was run: as §1
# [14] = molecular target: Neu5Ac(a2-3)Gal(b1-4)GlcNAc(b1-2)Man(a1-3)[Neu5Ac(a2-3)Gal(b1-4)GlcNAc(b1-2)Man(a1-6)]Man(b1-4)GlcNAc(b1-4)[Fuc(a1-6)]GlcNAc
# How it was run: as §1
# [15] = molecular target: Neu5Ac(a2-3)Gal(b1-4)GlcNAc(b1-2)Man(a1-3)[Neu5Ac(a2-6)Gal(b1-4)GlcNAc(b1-2)Man(a1-6)]Man(b1-4)GlcNAc(b1-4)GlcNAc
# How it was run: as §1
# [16] = molecular target: Neu5Ac(a2-3)Gal(b1-4)GlcNAc(b1-2)[Neu5Ac(a2-3)Gal(b1-4)GlcNAc(b1-4)]Man(a1-3)[GlcNAc(b1-4)][Neu5Ac(a2-3)Gal(b1-4)GlcNAc(b1-2)[Neu5Ac(a2-3)Gal(b1-4)GlcNAc(b1-6)]Man(a1-6)]Man(b1-4)GlcNAc(b1-4)GlcNAc
# How it was run: as §1
# [17] = molecular target: Neu5Ac(a2-3)Gal(b1-4)GlcNAc(b1-2)[Neu5Ac(a2-3)Gal(b1-4)GlcNAc(b1-4)]Man(a1-3)[GlcNAc(b1-4)][Neu5Ac(a2-3)Gal(b1-4)GlcNAc(b1-4)Man(a1-6)]Man(b1-4)GlcNAc(b1-4)GlcNAc
# How it was run: as §1
# [18] = molecular target: Neu5Ac(a2-3)Gal(b1-4)GlcNAc(b1-2)[Neu5Ac(a2-3)Gal(b1-4)GlcNAc(b1-6)]Man(a1-6)[Neu5Ac(a2-3)Gal(b1-4)GlcNAc(b1-2)Man(a1-3)]Man(b1-4)GlcNAc(b1-4)GlcNAc
# How it was run: as §1
# [19] = molecular target: Neu5Ac(a2-3)Gal(b1-4)GlcNAc(b1-2)[Neu5Ac(a2-3)Gal(b1-4)GlcNAc(b1-6)]Man(a1-6)[Neu5Ac(a2-3)Gal(b1-4)GlcNAc(b1-2)Man(a1-3)][GlcNAc(b1-4)]Man(b1-4)GlcNAc(b1-4)GlcNAc
# How it was run: as §1
# [20] = molecular target: Neu5Ac(a2-3)Gal(b1-4)GlcNAc(b1-3)Gal
# How it was run: as §1
# [21] = molecular target: Neu5Ac(a2-3)Gal(b1-4)GlcNAc(b1-3)Gal(b1-3)GlcNAc
# How it was run: as §1
# [22] = molecular target: Neu5Ac(a2-3)Gal(b1-4)GlcNAc(b1-3)Gal(b1-4)GlcNAc
# How it was run: as §1
# [23] = molecular target: Neu5Ac(a2-3)Gal(b1-4)GlcNAc(b1-3)Gal(b1-4)GlcNAc(b1-2)Man(a1-3)[Neu5Ac(a2-3)Gal(b1-4)GlcNAc(b1-3)Gal(b1-4)GlcNAc(b1-2)Man(a1-6)]Man(b1-4)GlcNAc(b1-4)GlcNAc
# How it was run: as §1
# [24] = molecular target: Neu5Ac(a2-3)Gal(b1-4)GlcNAc(b1-3)Gal(b1-4)GlcNAc(b1-3)Gal(b1-4)GlcNAc
# How it was run: as §1
# [25] = molecular target: Neu5Ac(a2-3)Gal(b1-4)GlcNAc(b1-3)Gal(b1-4)GlcNAc(b1-3)Gal(b1-4)GlcNAc(b1-2)Man(a1-3)[Neu5Ac(a2-3)Gal(b1-4)GlcNAc(b1-3)Gal(b1-4)GlcNAc(b1-3)Gal(b1-4)GlcNAc(b1-2)Man(a1-6)]GalNAc
# How it was run: as §1
# [26] = molecular target: Neu5Ac(a2-3)Gal(b1-4)GlcNAc(b1-3)Gal(b1-4)GlcNAc(b1-3)GalNAc
# How it was run: as §1
# [27] = molecular target: Neu5Ac(a2-3)Gal(b1-4)GlcNAc(b1-3)Gal(b1-4)GlcNAc(b1-3)[Neu5Ac(a2-3)Gal(b1-4)GlcNAc(b1-3)Gal(b1-4)GlcNAc(b1-6)]GalNAc
# How it was run: as §1
# [28] = molecular target: Neu5Ac(a2-3)Gal(b1-4)GlcNAc(b1-3)Gal(b1-4)GlcNAc(b1-6)[Gal(b1-3)]GalNAc
# How it was run: as §1
# [29] = molecular target: Neu5Ac(a2-3)Gal(b1-4)GlcNAc(b1-3)Gal(b1-4)[Fuc(a1-3)]GlcNAc
# How it was run: as §1
# [30] = molecular target: Neu5Ac(a2-3)Gal(b1-4)GlcNAc(b1-3)GalNAc
# How it was run: as §1
# [31] = molecular target: Neu5Ac(a2-3)Gal(b1-4)GlcNAc(b1-3)[Neu5Ac(a2-3)Gal(b1-4)GlcNAc(b1-6)]GalNAc
# How it was run: as §1
# [32] = molecular target: Neu5Ac(a2-3)Gal(b1-4)GlcNAc(b1-6)GalNAc
# How it was run: as §1
# [33] = molecular target: Neu5Ac(a2-3)Gal(b1-4)GlcNAc(b1-6)[Gal(b1-3)]GalNAc
# How it was run: as §1
# [34] = molecular target: Neu5Ac(a2-3)Gal(b1-4)GlcNAc(b1-6)[Neu5Ac(a2-3)Gal(b1-3)]GalNAc
# How it was run: as §1
# [35] = molecular target: Neu5Ac(a2-3)Gal(b1-4)GlcNAc6S
# How it was run: as §1
# [36] = molecular target: Neu5Ac(a2-3)Gal(b1-4)[Fuc(a1-3)]GlcNAc
# How it was run: as §1
# [37] = molecular target: Neu5Ac(a2-3)Gal(b1-4)[Fuc(a1-3)]GlcNAc(b1-2)Man
# How it was run: as §1
# [38] = molecular target: Neu5Ac(a2-3)Gal(b1-4)[Fuc(a1-3)]GlcNAc(b1-3)Gal
# How it was run: as §1
# [39] = molecular target: Neu5Ac(a2-3)Gal(b1-4)[Fuc(a1-3)]GlcNAc(b1-3)Gal(b1-4)GlcNAc
# How it was run: as §1
# [40] = molecular target: Neu5Ac(a2-3)Gal(b1-4)[Fuc(a1-3)]GlcNAc(b1-3)Gal(b1-4)[Fuc(a1-3)]GlcNAc(b1-3)Gal(b1-4)[Fuc(a1-3)]GlcNAc
# How it was run: as §1
# [41] = molecular target: Neu5Ac(a2-3)Gal(b1-4)[Fuc(a1-3)]GlcNAc(b1-3)GalNAc
# How it was run: as §1
# [42] = molecular target: Neu5Ac(a2-3)Gal(b1-4)[Fuc(a1-3)]GlcNAc(b1-6)[Gal(b1-3)]GalNAc
# How it was run: as §1
# [43] = molecular target: Neu5Ac(a2-3)Gal(b1-4)[Fuc(a1-3)]GlcNAc(b1-6)[Neu5Ac(a2-3)Gal(b1-3)]GalNAc
# How it was run: as §1
# [44] = molecular target: Neu5Ac(a2-3)Gal(b1-4)[Fuc(a1-3)]GlcNAc6S
# How it was run: as §1
# [45] = molecular target: Neu5Ac(a2-3)Gal6S(b1-4)GlcNAc
# How it was run: as §1
binder,measurement,setting,value
B1,glycan array binding signal (z-score),[1],-0.214
same,glycan array binding signal (z-score),[2],-0.243
same,glycan array binding signal (z-score),[3],-0.24
same,glycan array binding signal (z-score),[4],-0.242
same,glycan array binding signal (z-score),[5],-0.241
same,glycan array binding signal (z-score),[6],-0.24
same,glycan array binding signal (z-score),[7],-0.243
same,glycan array binding signal (z-score),[8],-0.231
same,glycan array binding signal (z-score),[9],-0.24
same,glycan array binding signal (z-score),[10],-0.241
same,glycan array binding signal (z-score),[11],-0.233
same,glycan array binding signal (z-score),[12],-0.248
same,glycan array binding signal (z-score),[13],-0.211
same,glycan array binding signal (z-score),[14],0.32
same,glycan array binding signal (z-score),[15],-0.218
same,glycan array binding signal (z-score),[16],-0.248
same,glycan array binding signal (z-score),[17],-0.243
same,glycan array binding signal (z-score),[18],0.587
same,glycan array binding signal (z-score),[19],-0.246
same,glycan array binding signal (z-score),[20],-0.251
same,glycan array binding signal (z-score),[21],-0.234
same,glycan array binding signal (z-score),[22],-0.243
same,glycan array binding signal (z-score),[23],-0.193
same,glycan array binding signal (z-score),[24],-0.25
same,glycan array binding signal (z-score),[25],-0.092
same,glycan array binding signal (z-score),[26],-0.244
same,glycan array binding signal (z-score),[27],-0.239
same,glycan array binding signal (z-score),[28],-0.242
same,glycan array binding signal (z-score),[29],-0.242
same,glycan array binding signal (z-score),[30],-0.244
same,glycan array binding signal (z-score),[31],-0.252
same,glycan array binding signal (z-score),[32],-0.231
same,glycan array binding signal (z-score),[33],-0.243
same,glycan array binding signal (z-score),[34],-0.243
same,glycan array binding signal (z-score),[35],-0.249
same,glycan array binding signal (z-score),[36],-0.245
same,glycan array binding signal (z-score),[37],-0.243
same,glycan array binding signal (z-score),[38],-0.242
same,glycan array binding signal (z-score),[39],-0.243
same,glycan array binding signal (z-score),[40],-0.225
same,glycan array binding signal (z-score),[41],-0.24
same,glycan array binding signal (z-score),[42],-0.219
same,glycan array binding signal (z-score),[43],-0.236
same,glycan array binding signal (z-score),[44],-0.247
same,glycan array binding signal (z-score),[45],-0.243
